Among all 310,000 compounds or so, about 2,200 (0.71%) showed an effect of 50% or more. Effects have a minus sign here. The list shows a part of the results.
Biological target: human ether-à-go-go-related gene (hERG) potassium channel (human, UniProt Q12809)
Test: primary screen, population patch clamp on CHO cells stably expressing hERG

human ether-à-go-go-related gene (hERG) potassium channel, sequence (Q12809 whole entry, looked up): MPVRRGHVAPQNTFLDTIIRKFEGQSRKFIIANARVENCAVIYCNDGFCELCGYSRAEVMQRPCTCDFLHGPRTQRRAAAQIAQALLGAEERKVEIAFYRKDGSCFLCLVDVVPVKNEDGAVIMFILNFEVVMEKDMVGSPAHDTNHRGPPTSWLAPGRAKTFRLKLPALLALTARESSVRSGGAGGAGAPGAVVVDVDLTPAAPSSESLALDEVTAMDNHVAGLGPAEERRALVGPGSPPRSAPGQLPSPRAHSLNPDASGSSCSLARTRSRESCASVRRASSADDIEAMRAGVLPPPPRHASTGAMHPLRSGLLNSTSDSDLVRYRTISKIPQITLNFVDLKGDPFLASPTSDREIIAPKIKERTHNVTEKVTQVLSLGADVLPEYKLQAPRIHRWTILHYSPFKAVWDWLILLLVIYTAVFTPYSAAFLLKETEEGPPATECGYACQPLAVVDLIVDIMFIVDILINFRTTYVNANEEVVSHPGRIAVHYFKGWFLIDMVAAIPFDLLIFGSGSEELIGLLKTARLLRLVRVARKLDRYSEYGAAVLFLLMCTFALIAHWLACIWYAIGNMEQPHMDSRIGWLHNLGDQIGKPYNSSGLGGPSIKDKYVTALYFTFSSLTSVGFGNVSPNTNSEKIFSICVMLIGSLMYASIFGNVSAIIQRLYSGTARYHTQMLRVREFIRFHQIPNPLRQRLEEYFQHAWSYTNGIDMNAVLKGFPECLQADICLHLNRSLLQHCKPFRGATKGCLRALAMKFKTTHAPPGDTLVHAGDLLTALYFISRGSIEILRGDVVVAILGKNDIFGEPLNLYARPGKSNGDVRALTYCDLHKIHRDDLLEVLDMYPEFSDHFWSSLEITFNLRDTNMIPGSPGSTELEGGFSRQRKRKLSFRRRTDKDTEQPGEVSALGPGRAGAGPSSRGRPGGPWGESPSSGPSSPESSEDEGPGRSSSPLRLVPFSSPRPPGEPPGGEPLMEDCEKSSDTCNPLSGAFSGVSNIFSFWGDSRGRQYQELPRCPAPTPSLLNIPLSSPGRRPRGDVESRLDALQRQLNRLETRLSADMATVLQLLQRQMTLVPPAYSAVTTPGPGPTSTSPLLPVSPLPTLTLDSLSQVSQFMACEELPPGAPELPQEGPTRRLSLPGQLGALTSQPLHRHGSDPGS

Compound	hERG current change (%, negative = inhibition) at 1uM [%]
CN(C)C(CNC(=O)Cc1cccc(C(F)(F)F)c1)c1ccco1 (centres unmarked)	6.63
CCOc1ccc(C=NC23CN4CN(CN(C4)C2)C3)cc1	9.28
O=C(Nc1ccc(F)c(Cl)c1)C1CCCN(c2cnccn2)C1 (centres unmarked)	1.25
O=C(/C=C/c1ccc2c(c1)OCO2)c1ccco1	11.2
O=C(O)c1cccc(S(=O)(=O)Nc2ccccc2-c2ccccc2)c1	16
COc1cc(OC)cc(C(=O)NC(=S)N2CCN(c3ccc(C(F)(F)F)cc3[N+](=O)[O-])CC2)c1	8.36
O=C(CC1CCCC1)OCn1nnc2ccccc2c1=O	8.49
O=C(O)CCc1nn2c3ccccc3n(CC(=O)c3cccs3)c2nc1=O	9.07
COc1ccc(OC)c(N(CC(=O)Nc2ccc3c(c2)OCO3)S(=O)(=O)c2ccccc2)c1	4.77
CCN(CC)Cc1c(C(=O)N/N=C/c2cccc(OCc3cccc(Cl)c3)c2)nnn1-c1nonc1N	-11.7
Cc1ccc2nc(SCC(=O)Nc3cc([N+](=O)[O-])ccc3F)[nH]c2c1	-2.2
COC(=O)/C(=N\Nc1ccccc1)Sc1nnc(-c2ccc(OC)cc2)n1C	8.26
OCC(O)/C=N/Nc1nc(N2CCCCC2)nc(N2CCCCC2)n1 (centres unmarked)	10.7
O=C(CC(c1ccc(F)cc1)c1ccco1)N1CCCC1 (centres unmarked)	8.45
CCn1c(SCc2nc3ccccc3s2)nc2cc(S(=O)(=O)N3CCOCC3)ccc21	-1.06
Cc1ccc(S(=O)(=O)NCC(=O)N(CC(=O)NCC2CCCO2)C2CCCC2)cc1 (centres unmarked)	-2.76
COc1ccc(-n2cc(-c3ccccc3)nc2SC)cc1	0.094
Cc1ccc(C)c(N2CCN(CC(=O)Nc3ccc([N+](=O)[O-])cc3C(=O)Nc3ccccc3F)CC2)c1	-20.3
O=C(Nc1ccccc1Oc1ccccc1)c1cccs1	7.76
Cc1cccc(N=C2NC(=O)CS2)c1C	10.8
COc1ccc(CN2CCC(=O)N(CCO)CC2)cc1OC	-3.62
CCCc1cc(=O)oc2cc(OCC(=O)NC(Cc3ccc(Cl)cc3)C(=O)O)ccc12 (centres unmarked)	14.8
Cc1nn(C(C)(C)C)c(OC(=O)c2cccs2)c1Sc1ccccc1	-7.79

Compound	hERG current change (%, negative = inhibition) at 1uM [%]
O=C(Cc1ccccc1)NNC(=O)Cc1ccccc1	12.4
Cc1ccc(Cl)cc1N1CCN(C(=O)COc2ccc(S(=O)(=O)NC(C)C)cc2)CC1	27.5
O=[n+]1cc(-c2ccc(F)cc2)n([O-])c2c1CCC2	13.4
CCC1CCC(C(=O)NNC(=O)OC)CC1 (centres unmarked)	5.41
O=C1CCN(CCc2ccccc2)CCN1CCSc1ccccc1	-36.9
COc1ccc(C2=CC(=O)CC(c3ccc(F)cc3)C2)cn1 (centres unmarked)	8.39
CCN(CCNC(=O)c1ccc(C#N)cc1)c1cccc(C)c1	1.68
CCOC(=O)C1=C(CC)Nc2ccccc2N=C1NC(=O)c1ccc(S(=O)(=O)N2CCCC2)cc1	11.2
CC(NC(=O)c1cc(-c2ccncc2)nc2ccc(Cl)cc12)C1CCCO1 (centres unmarked)	9.3
O=C(O)c1nn(-c2ccc(F)cc2)ccc1=O	20.6
O=C(COc1ccc(Cl)cc1)NCc1nnc(SCC(=O)NC2CCCCC2)o1	15.6
Cc1csc(C(C#N)C(=O)c2cc3ccccc3o2)n1 (centres unmarked)	-1.01
CCc1ccccc1N1C(=O)CC(N2CCc3ccccc32)C1=O (centres unmarked)	5.28
O=S(=O)(Nc1ccc(-n2cnnn2)cc1)c1ccc(Cl)cc1	-0.356
Clc1ccc(NC2=NCCCS2)cc1Cl	13.8
CC(OC(=O)c1ccccn1)C(=O)Nc1ccc(C(F)(F)F)cc1 (centres unmarked)	10.3
CC(C)N(CC(N)=O)c1ccc(S(=O)(=O)N2CCCC2)cn1	-6.43
O=C(NCC(c1ccco1)N1CCCC1)c1cccc(S(=O)(=O)N2CCOCC2)c1 (centres unmarked)	4.06
O=C(c1ccccc1)N1CC(COc2ccccc2)OC(c2ccco2)O1 (centres unmarked)	-2.67
Cc1ccc(N(C(=O)Cn2nnc(-c3ccc(F)cc3)n2)C(C(=O)NC(C)(C)C)c2ccncc2)cc1 (centres unmarked)	10
CN(c1ccccc1)S(=O)(=O)c1cccc(NC(=O)Cn2cnc3c2c(=O)n(C)c(=O)n3C)c1	3.38
COc1ccccc1/C=C/C(=O)N1CCCC1	11
CC(C)(C)NS(=O)(=O)c1ccc(CCC(=O)N2CCCC2)cc1	16.5

Compound	hERG current change (%, negative = inhibition) at 1uM [%]
COc1ccc(S(=O)(=O)NC2CC(C)(C)NC(C)(C)C2)cc1C(C)C	10.3
O=C1C2CC=C(Cl)CC2C(=O)N1CN(Cc1ccco1)CN1C(=O)C2CC=C(Cl)CC2C1=O (centres unmarked)	11.3
COCCNc1nc(C)cc(-c2cc(C(=O)NC3CCCC3)on2)n1	5.78
Cc1cccn2c(=O)c3cc(C(=O)NC4CCCCC4)c(=N)n(CCN4CCOCC4)c3nc12	-51.7
COc1ccc(N=C2C(=Nc3ccc(OC)cc3)N(c3ccc(OC)cc3)C(=S)N2C(=O)c2ccc(OC)cc2)cc1	-9.35
CSc1ccccc1NC(=O)CSCc1ccc(Br)cc1	6.37
CCOC(=O)c1[nH]c(C)c(C(=O)OCC(=O)N2CCc3ccccc32)c1C	5.29
O=C(CCC(=O)N1CCOc2ccccc21)Nc1ccc(F)cc1F	7.61
COc1cc(C2NC(=O)NC(C)=C2C(=O)OCc2ccc(C)cc2)cc(OC)c1O (centres unmarked)	-4.75
Cc1cc(=O)[nH]c(SCC(=O)Nc2ccc(Cl)cn2)n1	12.7
CN(C)C(=O)c1cc(Br)ccc1Cl	14.3
COCc1nnc(NC(=O)CS(=O)(=O)Cc2ccccc2)s1	18.6
O=C(CN1CCN(c2ccccc2)CC1)NC(=O)NCc1ccco1	15.3
O=C(Nc1ccccc1OC(F)F)C1CC(=O)N(Cc2ccccc2)C1 (centres unmarked)	15.6
Cc1ccc2c(CN3CCN(Cc4ccccc4)CC3)cc(=O)oc2c1C	-5.81
CCOC(=O)CCSc1nc(C)c2cc(C)ccc2n1	13.7
CC1=NN(C(=O)c2ccc(Br)cc2)C(O)(c2ccccc2)C1 (centres unmarked)	11.3
CCCn1nc(NS(=O)(=O)c2ccccc2)c2cc3ccccc3nc21	1.03
COC(=O)C1CCN(C(=O)c2ccc3nccnc3c2)CC1	7.4
CCN(CC)S(=O)(=O)c1ccc2c(c1)c(=O)c(C(=O)NCc1cccs1)cn2C	13.7
CCOc1ccc(OCCC(=O)N2CCN(S(=O)(=O)c3ccc(OCC)cc3)CC2)cc1	1.22
Cc1cccc(NC(=S)NNC(=O)c2csc(C(C)C)c2)c1	-3.48
CCCCN(C(=O)c1cc(CC)c(C)s1)c1c(N)n(CCC)c(=O)[nH]c1=O	-10.8

Compound	hERG current change (%, negative = inhibition) at 1uM [%]
N#CCc1cccnc1Sc1ccc(Cl)cc1	9.12
CN(C)CCCNCCNC(=O)/C=N\O.Cl	-46.7
O=C(O)c1ccccc1-c1ccccc1C(=O)Nc1cccc(O)c1	10.4
CCOC(=O)Cn1c(=O)cc(C)c2ccccc21	14.7
Fc1ccc(NC(=S)NCc2ccccc2Cl)cc1	12
CCC(=O)Nc1nnc(SCc2cccc(F)c2)s1	6.14
COC(=O)c1cc(S(=O)(=O)N2CCN(C3CCCCC3)CC2)c[nH]1	-1.64
CCNc1nc(NC(C)C)nc(ON=C(C)C)n1	6.83
CCOc1ccc(N2C(=O)CC(N(Cc3ccco3)C(=O)CC)C2=O)cc1 (centres unmarked)	-3.5
NS(=O)(=O)c1cccc(NC(=O)CCS(=O)(=O)c2ccc(Cl)cc2)c1	10.3
C/C=C/C1=CC(=O)C[C@H](c2ccc(OC)c(OC)c2)C1	10.2
COc1ccccc1CNC(=O)COc1ccccc1C	12.1
COc1ccc(Nc2c3c(nc4c(-c5ccccc5)c(C)nn24)CCC3)cc1	0.598
N#Cc1nc(Cc2ccccc2)oc1NCCc1ccccc1	9.75
Cc1nn(-c2ccccc2)c(Cl)c1C(=O)NCCCCNC(=O)c1c(C)nn(-c2ccccc2)c1Cl	0.0235
COc1ccccc1Oc1ccc(NC(=O)c2ccccc2C)cc1	15.8
COc1ccccc1CNC(=O)CCNS(=O)(=O)c1ccc2c(c1)oc(=O)n2C	8.35
Cc1cccc(N2C(=O)NC(=O)/C(=C\C=C\c3ccco3)C2=O)c1	15.4
Cc1cc(C)cc(N(CC(=O)NCC2CCCO2)C(=O)CN2C(=O)COc3ccccc32)c1 (centres unmarked)	-9.77
CC(=O)c1ccc(NC(=O)Nc2ccc(S(=O)(=O)N3CCCC3)cc2)cc1	17.7

Source: PMC4336329 (PLoS ONE, 2015)
